Data reported in the supplement of paper PMC12217912.
This is one part of the list. The full chains were built here from the parent and the listed change. Inactive controls read about 0.05.

B1: TEV protease; numbered along this chain (parent)
chain: MGESLFKGPRDYNPISSSICHLTNESDGHTTSLYGIGFGPFIITNKHLFRRNNGTLVVQSLHGVFKVKDTTTLQQHLVDGRDMIIIRMPKDFPPFPQKLKFREPQREERICLVTTNFQTKSMSSMVSDTSCTFPSGDGIFWKHWIQTKDGQCGSPLVSTRDGFIVGIHSASNFTNTNNYFTSVPKNFMELLTNQEAQQWVSGWRLNADSVLWGGHKVFMVKPEEPFQPVKEATQL

Variants of: B1
Test: raw area under fraction-flipped curve 0-4 h after induction (AUC4h, not background-subtracted), DNA-recorder readout of cleavage of the substrate (dimensionless); higher = more cleavage of the substrate by the protease variant
Conditions: temperature: 34 °C; time window: 0-4 h after rhamnose induction
Method: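 In vivo DNA recorder in E. coli TOP10(DE3) ΔrhaA at 34 °C. Each TEVp single-site mutant (parent TEVp 0) is paired with a single-site variant of the 7-mer TEVs (canonical ENLYFQ|S). The substrate sits between flexible linkers in a Bxb1-sfGFP-TEVs-SsrA fusion, so cleavage stabilises Bxb1 and speeds flipping of a recombination array, read by NGS. The value is the raw area under the fraction-flipped curve over 0-4 h after rhamnose induction (AUC4h), with ≥20 reads per time point. It is not background-subtracted; inactive controls average about 0.047.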
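Note: Bxb1 expression induced with 0.2% (w/v) L-rhamnose at OD600 near 0.5, cultures sampled hourly, flipped fraction per protease–substrate barcode pair counted by paired-end Illumina sequencing.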

| Variant | area with substrate ECLYFQS | area with substrate EDLYFQS | area with substrate EELYFQS | area with substrate EFLYFQS | area with substrate EGLYFQS | area with substrate ERLYFQS | area with substrate EVLYFQS | area with substrate EWLYFQS | area with substrate EYLYFQS | area with substrate EKLYFQS | area with substrate ELLYFQS | area with substrate EMLYFQS | area with substrate EQLYFQS | area with substrate ESLYFQS | area with substrate EHLYFQS | area with substrate EILYFQS | area with substrate EPLYFQS | area with substrate ETLYFQS |
| --- | --- | --- | --- | --- | --- | --- | --- | --- | --- | --- | --- | --- | --- | --- | --- | --- | --- | --- |
| I110Y | 0.07 | 0.0789 | 0.0428 | 0.064 | 0.0506 | 0.0441 | 0.0563 | 0.0713 | 0.0789 |  |  |  |  |  |  |  |  |  |
| H76K | 0.0972 |  | 0.0925 |  |  | 0.0995 | 0.0548 |  |  | 0.0878 | 0.0707 | 0.0914 | 0.114 | 0.113 |  |  |  |  |
| H76V | 0.149 | 0.145 | 0.119 |  |  |  |  |  |  |  |  |  | 0.103 | 0.0983 | 0.12 | 0.0928 |  |  |
| E103R | 0.0806 | 0.101 | 0.11 |  |  | 0.0847 |  | 0.0757 | 0.079 | 0.114 | 0.0797 | 0.102 | 0.0834 | 0.0952 |  | 0.0773 | 0.111 | 0.0751 |
| L73N | 0.0502 | 0.0696 |  |  | 0.0474 |  |  | 0.06 | 0.0566 | 0.0494 | 0.0504 |  | 0.0608 |  |  |  |  | 0.0474 |
| L73K | 0.0437 | 0.0495 | 0.0535 |  |  | 0.06 | 0.0552 |  | 0.0644 |  | 0.0626 | 0.0415 | 0.0414 |  |  | 0.0326 | 0.0598 |  |
| T71R | 0.0751 | 0.145 | 0.147 |  | 0.0866 |  |  | 0.1 | 0.136 | 0.105 |  | 0.112 |  | 0.112 | 0.133 |  |  | 0.105 |
| T71Q | 0.0969 |  | 0.119 |  | 0.0901 |  |  |  | 0.111 |  | 0.0902 | 0.111 | 0.148 | 0.0803 | 0.103 | 0.0994 |  |  |
| T71N | 0.0917 | 0.0974 | 0.111 |  | 0.0771 | 0.0915 | 0.0718 | 0.0842 |  | 0.0854 |  | 0.0659 | 0.0924 |  |  | 0.0396 |  |  |
| I86S | 0.062 |  | 0.0563 |  |  | 0.0578 | 0.0555 | 0.0516 | 0.0684 | 0.0589 | 0.0621 | 0.0706 | 0.0586 | 0.0621 | 0.0727 | 0.0569 | 0.0604 |  |
| I86T | 0.0714 |  | 0.078 |  |  | 0.0684 | 0.0622 | 0.0819 |  | 0.0611 |  | 0.0717 |  | 0.0749 |  | 0.0662 | 0.0746 |  |
| Q74K | 0.114 | 0.134 | 0.134 |  | 0.0749 |  | 0.101 |  |  | 0.0956 |  |  | 0.122 | 0.0838 | 0.0866 |  | 0.11 |  |
| Q74Y | 0.0982 | 0.094 |  |  |  |  | 0.084 |  |  | 0.116 |  | 0.0944 | 0.125 |  |  |  | 0.159 | 0.102 |
| D82P | 0.0542 | 0.064 | 0.0609 |  | 0.0554 |  | 0.0509 |  |  |  |  | 0.0538 |  |  |  | 0.0467 |  |  |
| L77Q | 0.0261 | 0.0651 | 0.0661 |  | 0.0576 | 0.0674 |  | 0.0652 |  | 0.0711 |  | 0.0753 | 0.0742 | 0.0654 |  | 0.0694 | 0.0701 |  |
| T119D | 0.107 |  | 0.101 |  |  | 0.0965 | 0.154 |  |  |  |  |  |  | 0.102 |  |  |  |  |
| T119Y | 0.0858 |  | 0.151 | 0.097 |  | 0.0773 | 0.132 | 0.0932 |  | 0.125 |  | 0.111 | 0.119 | 0.112 |  | 0.0845 | 0.12 |  |

| Variant | area with substrate ECLYFQS | area with substrate EDLYFQS | area with substrate EELYFQS | area with substrate EFLYFQS | area with substrate EGLYFQS | area with substrate ERLYFQS | area with substrate EVLYFQS | area with substrate EWLYFQS | area with substrate EYLYFQS | area with substrate EKLYFQS | area with substrate ELLYFQS | area with substrate EMLYFQS | area with substrate EQLYFQS | area with substrate ESLYFQS | area with substrate EHLYFQS | area with substrate EILYFQS | area with substrate EPLYFQS | area with substrate ETLYFQS |
| --- | --- | --- | --- | --- | --- | --- | --- | --- | --- | --- | --- | --- | --- | --- | --- | --- | --- | --- |
| V113I | 0.0768 |  |  | 0.0999 | 0.1 |  | 0.107 |  | 0.0828 | 0.121 | 0.0814 | 0.131 |  | 0.0848 | 0.121 | 0.0755 |  |  |
| T129G | 0.108 | 0.113 |  |  |  | 0.0875 | 0.0837 |  | 0.0835 | 0.0917 | 0.0994 |  |  |  |  |  |  |  |
| F95D | 0.0303 | 0.0559 |  | 0.0539 |  |  |  |  |  |  |  | 0.057 |  |  |  |  |  | 0.0447 |
| F101C | 0.0535 | 0.0749 | 0.0011 | 0.07 | 0.0826 | 0.086 | 0.0829 | 0.0635 | 0.0719 | 0.0758 | 0.0796 | 0.0862 |  | 0.0698 | 0.0855 | 0.0757 |  | 0.0904 |
| G80S | 0.123 |  | 0.123 | 0.0888 | 0.0778 | 0.105 |  | 0.0999 |  |  |  | 0.115 | 0.0986 |  |  |  |  |  |
| T70N | 0.0588 |  | 0.0773 |  | 0.062 | 0.079 | 0.0633 |  | 0.0647 |  |  |  | 0.0868 | 0.0678 |  | 0.0624 |  | 0.062 |
| S127W | 0.11 |  | 0.141 | 0.106 | 0.0864 | 0.151 | 0.0944 |  |  | 0.141 |  |  |  | 0.107 |  |  | 0.127 |  |
| S127C | 0.098 |  | 0.156 |  | 0.108 | 0.0985 | 0.0901 | 0.0909 | 0.0866 | 0.0754 | 0.0943 |  | 0.102 | 0.102 |  | 0.098 | 0.119 | 0.0976 |
| R81Y | 0.0813 | 0.0939 | 0.0995 |  | 0.0751 |  | 0.0818 | 0.0708 | 0.0908 | 0.085 | 0.0827 |  | 0.0753 | 0.0797 | 0.0796 | 0.0746 |  |  |
| R81W | 0.0755 | 0.0911 |  | 0.0728 |  | 0.0795 | 0.0887 |  |  | 0.0706 |  | 0.0643 |  | 0.0789 |  |  | 0.0696 |  |
| E107P | 0.0936 | 0.103 |  |  |  | 0.0813 | 0.0898 |  |  | 0.0961 |  | 0.119 | 0.119 | 0.0881 |  | 0.086 |  | 0.111 |
| E107R | 0.0807 |  | 0.146 | 0.11 | 0.11 | 0.13 | 0.101 | 0.0827 | 0.11 |  | 0.0834 | 0.131 | 0.107 |  |  | 0.0931 |  |  |
| Q118D | 0.155 | 0.104 |  |  | 0.0896 | 0.0984 | 0.084 | 0.118 |  | 0.111 | 0.0865 | 0.102 |  |  | 0.125 | 0.0293 |  |  |
| T115A | 0.12 | 0.106 |  |  |  | 0.117 |  |  |  | 0.115 | 0.0748 |  | 0.116 | 0.077 |  |  |  |  |
| T115L | 0.11 | 0.131 | 0.159 |  |  | 0.0999 | 0.0869 | 0.0799 |  |  |  | 0.104 |  |  |  |  | 0.147 |  |
| S130H | 0.0842 |  | 0.121 |  |  | 0.0884 | 0.129 |  | 0.126 | 0.102 | 0.0546 |  | 0.0665 | 0.109 |  | 0.0891 | 0.107 | 0.0894 |
| R102P | 0.0371 |  | 0.0499 |  | 0.0495 | 0.0726 | 0.0332 |  | 0.0479 | 0.0241 | 0.0459 |  | 0.0369 | 0.0366 | 0.0509 | 0.0438 | 0.0335 |  |
